# Data as given in the supplement of paper PMC8728848.
# The list shows a part of the results.
# B1: Surfactant Protein D (Human); Neck + Carbohydrate Recognition Domain (NCRD) (Homo sapiens) (protein)
# chain: MLLFLLSALVLLTQPLGYLEAEMKTYSHRTMPSACTLVMCSSVESGLPGRDRDGREGPRGEKGDPGLPGAAGQAGMPGQAGPVGPKGDNGSVGEPGPKGDTGPSGPPGPPGVPGPAGREGALGKQGNIGPQGKPGPKGEAGPKGEVGAPGMQGSAGARGLAGPKGERGVPGERGVPGNTGAAGSAGAMGPQGSPGARGPPGLKGDKGIPGDKGAKGESGLPDVASLRQQVEALQGQVQHLQAAFSQYKKVELFPNGQSVGEKIFKTAQFVKPFTEAQLLCTQAGGQLASPRSAAENAALQQLVVAKNEAAFLSMTDSKTEGKFTYPTGESLVYSNWAPGEPNDDGGSEDCVEIFTNGKWNDRACGEKALVVCEF
# Tests used:
# Test in all cases: glycan array binding signal (z-score within array); higher = stronger binding
# Details in all cases: glycan notation: IUPAC condensed, linker removed; mutation: R349A
# [1] = target: Fuc(a1-2)Gal
# In short: (§1)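 Glycan array binding is given as a within-array Z-score, which can be read as non-binding when negative. The arrays, 3228 of them, came from the Consortium for Functional Glycomics database and were retained only where the protein sequence was available. Z-scores were averaged across arrays of the same protein sequence at different concentrations or buffers and across linkers.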
# [2] = target: Fuc(a1-2)Gal(b1-3)GalNAc
# In short: as §1
# [3] = target: Fuc(a1-2)Gal(b1-3)GalNAc(b1-3)Gal
# In short: as §1
# [4] = target: Fuc(a1-2)Gal(b1-3)GalNAc(b1-3)Gal(a1-4)Gal(b1-4)Glc
# In short: as §1
# [5] = target: Fuc(a1-2)Gal(b1-3)GalNAc(b1-4)[Neu5Ac(a2-3)]Gal(b1-4)Glc
# In short: as §1
# [6] = target: Fuc(a1-2)Gal(b1-3)GlcNAc
# In short: as §1
# [7] = target: Fuc(a1-2)Gal(b1-3)GlcNAc(b1-3)Gal(b1-4)Glc
# In short: as §1
# [8] = target: Fuc(a1-2)Gal(b1-3)[Fuc(a1-4)]GlcNAc
# In short: as §1
# [9] = target: Fuc(a1-2)Gal(b1-4)Glc
# In short: as §1
# [10] = target: Fuc(a1-2)Gal(b1-4)Glc6S
# In short: as §1
# [11] = target: Fuc(a1-2)Gal(b1-4)GlcNAc
# In short: as §1
# [12] = target: Fuc(a1-2)Gal(b1-4)GlcNAc(b1-3)Gal(b1-4)GlcNAc
# In short: as §1
# [13] = target: Fuc(a1-2)Gal(b1-4)GlcNAc(b1-3)Gal(b1-4)GlcNAc(b1-3)Gal(b1-4)GlcNAc
# In short: as §1
# [14] = target: Fuc(a1-2)Gal(b1-4)GlcNAc6S
# In short: as §1
# [15] = target: Fuc(a1-2)Gal(b1-4)[Fuc(a1-3)]GlcNAc
# In short: as §1
# [16] = target: Fuc(a1-2)Gal(b1-4)[Fuc(a1-3)]GlcNAc(b1-3)Gal(b1-4)[Fuc(a1-3)]GlcNAc
# In short: as §1
# [17] = target: Fuc(a1-2)Gal(b1-4)[Fuc(a1-3)]GlcNAc(b1-3)Gal(b1-4)[Fuc(a1-3)]GlcNAc(b1-3)Gal(b1-4)[Fuc(a1-3)]GlcNAc
# In short: as §1
# [18] = target: Fuc(a1-2)Gal6S(b1-4)Glc
# In short: as §1
# [19] = target: Fuc(a1-2)Gal6S(b1-4)Glc6S
# In short: as §1
# [20] = target: Fuc(a1-2)Gal6S(b1-4)GlcNAc
# In short: as §1
# [21] = target: Fuc(a1-2)[Gal(a1-3)]Gal
# In short: as §1
# [22] = target: Fuc(a1-2)[Gal(a1-3)]Gal(b1-3)GlcNAc
# In short: as §1
# [23] = target: Fuc(a1-2)[Gal(a1-3)]Gal(b1-4)Glc
# In short: as §1
# [24] = target: Fuc(a1-2)[Gal(a1-3)]Gal(b1-4)GlcNAc
# In short: as §1
# [25] = target: Fuc(a1-2)[Gal(a1-3)]Gal(b1-4)[Fuc(a1-3)]GlcNAc
# In short: as §1
# [26] = target: Fuc(a1-2)[Gal(a1-4)]Gal(b1-4)GlcNAc
# In short: as §1
# [27] = target: Fuc(a1-2)[GalNAc(a1-3)]Gal
# In short: as §1
# [28] = target: Fuc(a1-2)[GalNAc(a1-3)]Gal(b1-3)GlcNAc
# In short: as §1
# [29] = target: Fuc(a1-2)[GalNAc(a1-3)]Gal(b1-4)Glc
# In short: as §1
# [30] = target: Fuc(a1-2)[GalNAc(a1-3)]Gal(b1-4)GlcNAc
# In short: as §1
# [31] = target: Fuc(a1-2)[GalNAc(a1-3)]Gal(b1-4)[Fuc(a1-3)]GlcNAc
# In short: as §1
# [32] = target: Fuc(a1-2)[GalNAc(a1-4)]Gal(b1-4)GlcNAc
# In short: as §1
# [33] = target: Fuc(a1-2)[GalNAc(b1-3)]Gal
# In short: as §1
# [34] = target: Fuc(a1-3)GlcNAc
# In short: as §1
# [35] = target: Fuc(a1-3)[Gal(b1-4)]Glc6S
# In short: as §1
# [36] = target: Fuc(a1-3)[Gal(b1-4)]GlcNAc
# In short: as §1
# [37] = target: Fuc(a1-3)[Gal(b1-4)]GlcNAc(b1-2)Man(a1-3)[Fuc(a1-3)[Gal(b1-4)]GlcNAc(b1-2)Man(a1-6)]Man(b1-4)GlcNAc(b1-4)GlcNAc
# In short: as §1
binder,measurement,setting,value
B1,glycan array binding signal (z-score),[1],-0.757
same,glycan array binding signal (z-score),[2],-0.311
same,glycan array binding signal (z-score),[3],-0.63
same,glycan array binding signal (z-score),[4],-0.613
same,glycan array binding signal (z-score),[5],-0.586
same,glycan array binding signal (z-score),[6],-0.93
same,glycan array binding signal (z-score),[7],-0.606
same,glycan array binding signal (z-score),[8],-0.721
same,glycan array binding signal (z-score),[9],-0.684
same,glycan array binding signal (z-score),[10],0.656
same,glycan array binding signal (z-score),[11],-0.584
same,glycan array binding signal (z-score),[12],-0.301
same,glycan array binding signal (z-score),[13],0.167
same,glycan array binding signal (z-score),[14],2.04
same,glycan array binding signal (z-score),[15],-0.727
same,glycan array binding signal (z-score),[16],0.115
same,glycan array binding signal (z-score),[17],-0.073
same,glycan array binding signal (z-score),[18],1.18
same,glycan array binding signal (z-score),[19],2.94
same,glycan array binding signal (z-score),[20],1.28
same,glycan array binding signal (z-score),[21],-0.627
same,glycan array binding signal (z-score),[22],-0.887
same,glycan array binding signal (z-score),[23],-0.602
same,glycan array binding signal (z-score),[24],-0.659
same,glycan array binding signal (z-score),[25],-0.441
same,glycan array binding signal (z-score),[26],-0.199
same,glycan array binding signal (z-score),[27],-0.147
same,glycan array binding signal (z-score),[28],-0.27
same,glycan array binding signal (z-score),[29],-0.584
same,glycan array binding signal (z-score),[30],-0.545
same,glycan array binding signal (z-score),[31],-0.584
same,glycan array binding signal (z-score),[32],-0.485
same,glycan array binding signal (z-score),[33],-0.782
same,glycan array binding signal (z-score),[34],-0.606
same,glycan array binding signal (z-score),[35],1.04
same,glycan array binding signal (z-score),[36],-0.25
same,glycan array binding signal (z-score),[37],-0.494
